Assay results reported in the supplement of paper PMC4604168 (melanoma cell lines).
Some of the results follow. Most values come without repeats; read them as rough.

How the values were obtained:
Experiment in all cases: cell count relative to DMSO control; melanoma cells; higher = more viable cells
Settings in all cases: library dose: low library concentration; 72 h
[1] = test system: MZ2-MEL
[2] = test system: MeWo
[3] = test system: RPMI7951
[4] = test system: RVH-421
[5] = test system: SkMel28
[6] = test system: SkMel30
[7] = test system: SkMel5
[8] = test system: UACC257
[9] = test system: UACC62
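Further: cell number obtained by counting DAPI-stained nuclei in high-throughput microscope images with image analysis software, screen run in 1,536-well plates.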

CO[C@@H]1[C@H](N(C)C(=O)c2ccccc2)C[C@H]2O[C@]1(C)n1c3ccccc3c3c4c(c5c6ccccc6n2c5c31)C(=O)NC4 [Midostaurin] + N#Cc1c(O)c2c(-c3ccc(-c4ccccc4O)cc3)csc2[nH]c1=O [A769662] (first compound 0.08 µM, partner dose 2 µM)
cell count [1]: 98.2% | cell count [2]: 69.5% | cell count [3]: 95.8% | cell count [4]: 100% | cell count [5]: 103% | cell count [6]: 102% | cell count [7]: 82.4% | cell count [8]: 68.8% | cell count [9]: 83.5%

C[C@]1(c2nc3c(C(N)=O)cccc3[nH]2)CCCN1 [Veliparib] + Cn1cc(/C=C2\C(=O)Nc3cccnc32)c2ccccc21 [GW441756] (first compound 1.4 µM, partner dose 0.4 µM)
cell count [1]: 93.6% | cell count [2]: 95.1% | cell count [3]: 74.2% | cell count [4]: 80.9% | cell count [5]: 79.5% | cell count [6]: 77.9% | cell count [7]: 84.2% | cell count [8]: 73.3% | cell count [9]: 77.2%

CO[C@@H]1[C@H](N(C)C(=O)c2ccccc2)C[C@H]2O[C@]1(C)n1c3ccccc3c3c4c(c5c6ccccc6n2c5c31)C(=O)NC4 [Midostaurin] + CCCCCCCCCCCC1=C(O)C(=O)C=C(O)C1=O [Embelin] (first compound 0.08 µM, partner dose 1.2 µM)
cell count [1]: 101% | cell count [2]: 107% | cell count [3]: 87.3% | cell count [4]: 75.1% | cell count [5]: 96% | cell count [6]: 101% | cell count [7]: 87.1% | cell count [8]: 88.5% | cell count [9]: 89.9%

OCCn1cc(-c2cnc3nnn(Cc4ccc5ncccc5c4)c3n2)cn1 + COc1cc2ncnc(Nc3ccc(Oc4ccccc4)cc3)c2cc1OC [SrcI1] (first compound 1 µM, partner dose 2 µM)
cell count [1]: 93.5% | cell count [2]: 102% | cell count [3]: 122% | cell count [4]: 107% | cell count [5]: 92% | cell count [6]: 93% | cell count [7]: 127% | cell count [8]: 91.5% | cell count [9]: 89%

NCC(=O)Nc1ccc(-n2nc(C(F)(F)F)cc2-c2ccc3c(ccc4ccccc43)c2)cc1 + CC(C)CCN1c2nc(Nc3cc(F)c(O)c(F)c3)ncc2N(C)C(=O)C1C [BID1870] (first compound 1 µM, partner dose 0.2 µM)
cell count [1]: 105% | cell count [2]: 59.5% | cell count [3]: 94.5% | cell count [4]: 98.5% | cell count [5]: 77.6% | cell count [6]: 66.6% | cell count [7]: 111% | cell count [8]: 78.5% | cell count [9]: 94.5%

CO[C@@H]1[C@H](N(C)C(=O)c2ccccc2)C[C@H]2O[C@]1(C)n1c3ccccc3c3c4c(c5c6ccccc6n2c5c31)C(=O)NC4 [Midostaurin] + CCc1ccc(CCOc2ccc(CC3SC(=O)NC3=O)cc2)nc1 [pioglitazone] (first compound 0.08 µM, partner dose 2 µM)
cell count [1]: 92.7% | cell count [2]: 93.7% | cell count [3]: 95.9% | cell count [4]: 99.9% | cell count [5]: 106% | cell count [6]: 121% | cell count [7]: 96.1% | cell count [8]: 95.2% | cell count [9]: 94.8%

NCC(=O)Nc1ccc(-n2nc(C(F)(F)F)cc2-c2ccc3c(ccc4ccccc43)c2)cc1 + COc1ccc(COc2ccc(Cc3cnc(N)nc3N)cc2OC)cc1 [GW2580] (first compound 1 µM, partner dose 1 µM)
cell count [1]: 89% | cell count [2]: 52.2% | cell count [3]: 120% | cell count [4]: 99.8% | cell count [5]: 70.6% | cell count [6]: 49% | cell count [7]: 88.9% | cell count [8]: 84.2% | cell count [9]: 101%

C[C@]1(c2nc3c(C(N)=O)cccc3[nH]2)CCCN1 [Veliparib] + COc1ccc(COc2ccc(Cc3cnc(N)nc3N)cc2OC)cc1 [GW2580] (first compound 1.4 µM, partner dose 1 µM)
cell count [1]: 93.4% | cell count [2]: 93.4% | cell count [3]: 87.3% | cell count [4]: 99% | cell count [5]: 91.8% | cell count [6]: 108% | cell count [7]: 102% | cell count [8]: 97.7% | cell count [9]: 83.7%

C=CCn1c(=O)c2cnc(Nc3ccc(N4CCN(C)CC4)cc3)nc2n1-c1cccc(C(C)(C)O)n1 + O=S(=O)(c1ccccc1)N(CC(F)(F)F)c1ccc(C(O)(C(F)(F)F)C(F)(F)F)cc1 [T0901317] (first compound 0.02 µM, partner dose 1.4 µM)
cell count [1]: 100% | cell count [2]: 101% | cell count [3]: 115% | cell count [4]: 109% | cell count [5]: 86% | cell count [6]: 98.2% | cell count [7]: 80% | cell count [8]: 84.3% | cell count [9]: 88.7%

NC(=O)Nc1cc(-c2cccc(F)c2)sc1C(=O)N[C@H]1CCCNC1 + c1cc(-c2cnn3cc(-c4ccc(OCCN5CCCCC5)cc4)cnc23)ccn1 [Dorsomorphin] (first compound 0.02 µM, partner dose 0.4 µM)
cell count [1]: 98.5% | cell count [2]: 117% | cell count [3]: 78.1% | cell count [4]: 120% | cell count [5]: 91.9% | cell count [6]: 95.1% | cell count [7]: 91.5% | cell count [8]: 127% | cell count [9]: 91.4%

CN(C)S(=O)(=O)c1ccc2c(c1)/C(=C/c1cc3c([nH]1)CCCC3)C(=O)N2 + O=C(Nc1ccccc1)c1cc([N+](=O)[O-])ccc1Cl [GW9662] (first compound 0.4 µM, partner dose 2 µM)
cell count [1]: 99.9% | cell count [2]: 82.8% | cell count [3]: 95.1% | cell count [4]: 77.9% | cell count [5]: 84.2% | cell count [6]: 96.2% | cell count [7]: 82.8% | cell count [8]: 80.1% | cell count [9]: 79.5%
